Assay: soluble fraction after stress (log2 fold change); higher = more stays soluble; pooled small domains, quantitative proteomics
Details: stress: 75 degC
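Also: 20 min heating vs room temperature control held 20 min.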

Sequence | soluble fraction (log2)
HMEVITIENEDAFTEGRAFAHSEGILVGISSGAALKAATILAERPENKGKTIVALLPDSGDRYLSTALFA | 0.135
HMGGKYKPLILWHLIEGTKRFSALQRLLPQATPRMLTMNLRELESDGLVHRKVYPEVPPKTEYSLSDLGK | -0.387
